Some of the results follow.
Tests used:
Experiment in all cases: glycan array binding signal (z-score within array); higher = stronger binding
Conditions in all cases: glycan notation: IUPAC condensed, linker removed
[1] = biological target: Gal3S(b1-4)Glc
In short: (§1)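 Columns mapping to the same glycan were averaged after glycan names were converted to IUPAC-condensed notation. The data come from 3228 arrays in the Consortium for Functional Glycomics database, limited to those with an available protein sequence. Binding is reported as a within-array Z-score averaged across arrays of one protein sequence and across linkers.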

[2] = biological target: Gal3S(b1-4)Glc6S
In short: as §1

[3] = biological target: Gal3S(b1-4)GlcNAc
In short: as §1

[4] = biological target: Gal3S(b1-4)[Fuc(a1-3)]Glc6S
In short: as §1

[5] = biological target: Gal3S(b1-4)[Fuc(a1-3)]GlcNAc
In short: as §1

[6] = biological target: Gal3S(b1-4)[Fuc(a1-3)]GlcNAc6S
In short: as §1

[7] = biological target: Gal3S4S(b1-4)GlcNAc
In short: as §1

[8] = biological target: Gal3S6S(b1-4)GlcNAc
In short: as §1

[9] = biological target: Gal3S6S(b1-4)GlcNAc6S
In short: as §1

[10] = biological target: Gal4S(b1-4)GlcNAc
In short: as §1

[11] = biological target: Gal4S6S(b1-4)GlcNAc
In short: as §1

[12] = biological target: Gal6P(b1-4)GlcNAc
In short: as §1

[13] = biological target: Gal6S(b1-3)GlcNAc
In short: as §1

[14] = biological target: Gal6S(b1-3)GlcNAc6S
In short: as §1

[15] = biological target: Gal6S(b1-4)Glc
In short: as §1

[16] = biological target: Gal6S(b1-4)Glc6S
In short: as §1

[17] = biological target: Gal6S(b1-4)GlcNAc
In short: as §1

[18] = biological target: Gal6S(b1-4)GlcNAc6S
In short: as §1

[19] = biological target: GalNAc(a1-3)Gal
In short: as §1

[20] = biological target: GalNAc(a1-3)GalNAc
In short: as §1

[21] = biological target: GalNAc(a1-3)GalNAc(b1-3)Gal(a1-4)Gal(b1-4)Glc
In short: as §1

[22] = biological target: GalNAc(a1-3)GalNAc(b1-3)Gal(a1-4)Gal(b1-4)GlcNAc
In short: as §1

[23] = biological target: GalNAc(b1-3)Gal
In short: as §1

[24] = biological target: GalNAc(b1-3)Gal(a1-4)Gal(b1-4)GlcNAc
In short: as §1

[25] = biological target: GalNAc(b1-3)Gal(a1-4)Gal(b1-4)GlcNAc(b1-3)Gal(b1-4)Glc
In short: as §1

[26] = biological target: GalNAc(b1-3)Gal(a1-6)Gal(b1-4)Glc
In short: as §1

[27] = biological target: GalNAc(b1-3)GalNAc
In short: as §1

[28] = biological target: GalNAc(b1-3)GlcNAc
In short: as §1

[29] = biological target: GalNAc(b1-4)Gal(b1-4)Glc
In short: as §1

[30] = biological target: GalNAc(b1-4)GlcNAc
In short: as §1

[31] = biological target: GalNAc(b1-4)GlcNAc(b1-2)Man
In short: as §1

[32] = biological target: GalNAc(b1-4)GlcNAc(b1-2)Man(a1-3)[GalNAc(b1-4)GlcNAc(b1-2)Man(a1-6)]Man(b1-4)GlcNAc(b1-4)GlcNAc
In short: as §1

[33] = biological target: GalNAc(b1-4)GlcNAc(b1-3)GalNAc(b1-4)GlcNAc
In short: as §1

[34] = biological target: GalNAc(b1-4)GlcNAc6S
In short: as §1

[35] = biological target: GalNAc(b1-6)GalNAc
In short: as §1

[36] = biological target: GalNAc3S(b1-4)GlcNAc
In short: as §1

[37] = biological target: GalNAc3S(b1-4)GlcNAc3S
In short: as §1

[38] = biological target: GalNAc3S(b1-4)[Fuc(a1-3)]GlcNAc
In short: as §1

[39] = biological target: GalNAc4S6S(b1-4)GlcNAc
In short: as §1

[40] = biological target: GalNAc6S(b1-4)GlcNAc
In short: as §1

[41] = biological target: Glc(a1-4)Glc
In short: as §1

[42] = biological target: Glc(a1-4)Glc(a1-4)Glc(a1-4)Glc
In short: as §1

[43] = biological target: Glc(a1-6)Glc(a1-6)Glc
In short: as §1

[44] = biological target: Glc(a1-6)Glc(a1-6)Glc(a1-6)Glc
In short: as §1

[45] = biological target: Glc(b1-4)Glc
In short: as §1

[46] = biological target: Glc(b1-6)Glc
In short: as §1

[47] = biological target: GlcA(b1-3)Gal
In short: as §1

[48] = biological target: GlcA(b1-3)GlcNAc
In short: as §1

[49] = biological target: GlcA(b1-6)Gal
In short: as §1

[50] = biological target: GlcA3S(b1-3)Gal(b1-4)GlcNAc(b1-2)Man
In short: as §1

[51] = biological target: GlcA3S(b1-3)Gal(b1-4)GlcNAc(b1-3)Gal(b1-4)Glc
In short: as §1

[52] = biological target: GlcNAc(a1-3)Gal(b1-4)GlcNAc
In short: as §1

[53] = biological target: GlcNAc(a1-4)Gal(b1-3)GlcNAc
In short: as §1

[54] = biological target: GlcNAc(a1-4)Gal(b1-4)GalNAc
In short: as §1

[55] = biological target: GlcNAc(a1-4)Gal(b1-4)GlcNAc
In short: as §1

[56] = biological target: GlcNAc(a1-4)Gal(b1-4)GlcNAc(b1-3)Gal(b1-4)Glc
In short: as §1

[57] = biological target: GlcNAc(a1-4)Gal(b1-4)GlcNAc(b1-3)Gal(b1-4)GlcNAc
In short: as §1

[58] = biological target: GlcNAc(a1-4)Gal(b1-4)GlcNAc(b1-3)Gal(b1-4)GlcNAc(b1-3)Gal(b1-4)GlcNAc
In short: as §1

[59] = biological target: GlcNAc(a1-4)Gal(b1-4)GlcNAc(b1-3)Gal(b1-4)[Fuc(a1-3)]GlcNAc(b1-3)Gal(b1-4)[Fuc(a1-3)]GlcNAc
In short: as §1

[60] = biological target: GlcNAc(a1-6)Gal(b1-4)GlcNAc
In short: as §1

[61] = biological target: GlcNAc(b1-2)Gal(b1-3)GalNAc
In short: as §1

[62] = biological target: GlcNAc(b1-2)Man(a1-3)[GlcNAc(b1-2)Man(a1-6)]Man(b1-4)GlcNAc(b1-4)GlcNAc
In short: as §1

[63] = biological target: GlcNAc(b1-2)Man(a1-3)[GlcNAc(b1-2)Man(a1-6)]Man(b1-4)GlcNAc(b1-4)[Fuc(a1-6)]GlcNAc
In short: as §1

[64] = biological target: GlcNAc(b1-2)Man(a1-3)[GlcNAc(b1-4)][GlcNAc(b1-2)Man(a1-6)]Man(b1-4)GlcNAc(b1-4)GlcNAc
In short: as §1

[65] = biological target: GlcNAc(b1-2)Man(a1-3)[GlcNAc(b1-4)][GlcNAc(b1-2)Man(a1-6)]Man(b1-4)GlcNAc(b1-4)[Fuc(a1-6)]GlcNAc
In short: as §1

[66] = biological target: GlcNAc(b1-2)[GlcNAc(b1-4)]Man(a1-3)[GlcNAc(b1-2)Man(a1-6)]Man(b1-4)GlcNAc(b1-4)GlcNAc
In short: as §1

[67] = biological target: GlcNAc(b1-2)[GlcNAc(b1-4)]Man(a1-3)[GlcNAc(b1-4)][GlcNAc(b1-2)Man(a1-6)]Man(b1-4)GlcNAc(b1-4)GlcNAc
In short: as §1

[68] = biological target: GlcNAc(b1-2)[GlcNAc(b1-4)]Man(a1-3)[GlcNAc(b1-4)][GlcNAc(b1-2)[GlcNAc(b1-6)]Man(a1-6)]Man(b1-4)GlcNAc(b1-4)GlcNAc
In short: as §1

[69] = biological target: GlcNAc(b1-2)[GlcNAc(b1-4)]Man(a1-3)[GlcNAc(b1-4)][GlcNAc(b1-2)[GlcNAc(b1-6)]Man(a1-6)]Man(b1-4)GlcNAc(b1-4)[Fuc(a1-6)]GlcNAc
In short: as §1

[70] = biological target: GlcNAc(b1-2)[GlcNAc(b1-6)]Man(a1-6)[GlcNAc(b1-2)Man(a1-3)]Man(b1-4)GlcNAc(b1-4)GlcNAc
In short: as §1

[71] = biological target: GlcNAc(b1-2)[GlcNAc(b1-6)]Man(a1-6)[GlcNAc(b1-2)Man(a1-3)]Man(b1-4)GlcNAc(b1-4)[Fuc(a1-6)]GlcNAc
In short: as §1

[72] = biological target: GlcNAc(b1-2)[GlcNAc(b1-6)]Man(a1-6)[GlcNAc(b1-4)][GlcNAc(b1-2)Man(a1-3)]Man(b1-4)GlcNAc(b1-4)GlcNAc
In short: as §1

[73] = biological target: GlcNAc(b1-3)Fuc
In short: as §1

[74] = biological target: GlcNAc(b1-3)Gal
In short: as §1

[75] = biological target: GlcNAc(b1-3)Gal(b1-3)GalNAc
In short: as §1

B1: Epa22 (Candida glabrata) (protein)
chain: MGSSHHHHHHSSGLVPRGSHMKRALSSQNPFGYPIGCSPQSTNVIPGLTMELYSYPIVSGTPPNCYDASYVDPEYPRTGYLKRKMIGKSTGVTGSLNYKFSVEKACMVKYGNLPAGYNYNEPLTVSNFTMLLYGYFKPQTSGIHTFFVNADDLLYINFGAGNAFDCCKREDSKFKLGEYVAYDIWHVDSSKNKVSLNLEKDVYYPIRMFFNNIGKDSSLDLSFSVNGAVEHITDFSGYLYSVPDQPDACPAPIGYDTTCK
[1]
  glycan array binding signal (z-score): -0.201
[2]
  glycan array binding signal (z-score): -0.37
[3]
  glycan array binding signal (z-score): -0.392
[4]
  glycan array binding signal (z-score): -0.379
[5]
  glycan array binding signal (z-score): -0.388
[6]
  glycan array binding signal (z-score): 0.376
[7]
  glycan array binding signal (z-score): -0.34
[8]
  glycan array binding signal (z-score): -0.18
[9]
  glycan array binding signal (z-score): 2.14
[10]
  glycan array binding signal (z-score): -0.182
[11]
  glycan array binding signal (z-score): -0.379
[12]
  glycan array binding signal (z-score): -0.245
[13]
  glycan array binding signal (z-score): 2.98
[14]
  glycan array binding signal (z-score): 5.95
[15]
  glycan array binding signal (z-score): 3.57
[16]
  glycan array binding signal (z-score): 4.93
[17]
  glycan array binding signal (z-score): 2.35
[18]
  glycan array binding signal (z-score): 4.56
[19]
  glycan array binding signal (z-score): -0.378
[20]
  glycan array binding signal (z-score): -0.38
[21]
  glycan array binding signal (z-score): -0.409
[22]
  glycan array binding signal (z-score): -0.33
[23]
  glycan array binding signal (z-score): -0.4
[24]
  glycan array binding signal (z-score): 0.085
[25]
  glycan array binding signal (z-score): -0.336
[26]
  glycan array binding signal (z-score): -0.363
[27]
  glycan array binding signal (z-score): -0.424
[28]
  glycan array binding signal (z-score): -0.322
[29]
  glycan array binding signal (z-score): -0.362
[30]
  glycan array binding signal (z-score): -0.38
[31]
  glycan array binding signal (z-score): -0.393
[32]
  glycan array binding signal (z-score): -0.36
[33]
  glycan array binding signal (z-score): -0.401
[34]
  glycan array binding signal (z-score): -0.344
[35]
  glycan array binding signal (z-score): -0.388
[36]
  glycan array binding signal (z-score): -0.316
[37]
  glycan array binding signal (z-score): -0.316
[38]
  glycan array binding signal (z-score): -0.379
[39]
  glycan array binding signal (z-score): -0.244
[40]
  glycan array binding signal (z-score): -0.21
[41]
  glycan array binding signal (z-score): -0.389
[42]
  glycan array binding signal (z-score): -0.335
[43]
  glycan array binding signal (z-score): -0.425
[44]
  glycan array binding signal (z-score): -0.376
[45]
  glycan array binding signal (z-score): -0.4
[46]
  glycan array binding signal (z-score): -0.364
[47]
  glycan array binding signal (z-score): -0.351
[48]
  glycan array binding signal (z-score): -0.304
[49]
  glycan array binding signal (z-score): 5.98
[50]
  glycan array binding signal (z-score): -0.398
[51]
  glycan array binding signal (z-score): -0.369
[52]
  glycan array binding signal (z-score): -0.4
[53]
  glycan array binding signal (z-score): -0.418
[54]
  glycan array binding signal (z-score): -0.129
[55]
  glycan array binding signal (z-score): -0.374
[56]
  glycan array binding signal (z-score): -0.409
[57]
  glycan array binding signal (z-score): -0.413
[58]
  glycan array binding signal (z-score): -0.408
[59]
  glycan array binding signal (z-score): -0.399
[60]
  glycan array binding signal (z-score): 2.37
[61]
  glycan array binding signal (z-score): -0.396
[62]
  glycan array binding signal (z-score): -0.378
[63]
  glycan array binding signal (z-score): -0.389
[64]
  glycan array binding signal (z-score): -0.416
[65]
  glycan array binding signal (z-score): -0.35
[66]
  glycan array binding signal (z-score): -0.368
[67]
  glycan array binding signal (z-score): -0.334
[68]
  glycan array binding signal (z-score): -0.401
[69]
  glycan array binding signal (z-score): -0.395
[70]
  glycan array binding signal (z-score): -0.415
[71]
  glycan array binding signal (z-score): -0.347
[72]
  glycan array binding signal (z-score): -0.417
[73]
  glycan array binding signal (z-score): -0.367
[74]
  glycan array binding signal (z-score): -0.389
[75]
  glycan array binding signal (z-score): -0.285

Reference: the supplement of paper PMC8728848
